Experimental data from the supplement of paper PMC10126150.
Values marked as one replicate rest on one cluster of the flow cell; about a third of the high ones do not repeat.

Each sequence was assayed on ATP (assay: switch fluorescence ratio, 500 uM ATP over buffer (Cy3 cluster intensity, sum of 5 cycles each) (fold (ratio)); higher = stronger signal-on switching upon ATP binding; sequences stand for … in TCGTCGGCAGCGTCAGATGTGTATAAGAGACAGTTTTTTTTTTTTTTTTTTTTTTTTT…TC). Conditions: aptamer strand: ATP DNA aptamer (quencher-CACCTGGGGGAGTATTGCGGAGGAAGG + anchor), 100 nM annealed; ATP concentration: 500 uM; one replicate.
Method in brief: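 Between each of five buffer/ATP cycles, the flow-cell was stripped with NaOH and re-annealed. Each cycle imaged Cy3-labelled switching-strand clusters, annealed to 100 nM quencher-labelled ATP aptamer on a modified Illumina MiSeq flow-cell, first in selection buffer and then after 15 min with 500 uM ATP at 22 °C. The fluorescence ratio is summed target-cycle over summed buffer-cycle Cy3 intensity per cluster, averaged per switch-domain sequence, with clusters outside 100-1000 RFU excluded.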
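Note: ATP exposure 15 min at 22 °C before imaging.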

Sequence | switch fluorescence ratio
TCACCCTCTG | 1.03
TCACCTGCCG | 1.07
TCACCTGGGT | 0.984
TCACGGCGAC | 1.21
TCACGTCAG | 0.998
TCACGTGCTG | 0.986
TCACTATAGA | 1.09
TCACTGATGA | 1.05
TCACTGTCCC | 1.01
TCACTTGCAG | 1.03
TCACTTTA | 1.04
TCACTTTCCT | 1.17
TCAGAAACT | 1.01
TCAGAAATTG | 0.966
TCAGAACCAT | 1.07
TCAGAAGGT | 0.998
TCAGAATCGC | 1.01
TCAGAGCGTG | 0.969
TCAGAGGAGC | 1.06
TCAGAGGGAG | 0.965
TCAGAGGTG | 1.06
TCAGCAGGC | 1.75
TCAGCAGGCC | 0.976
TCAGCCAGGA | 1
TCAGCCCTCG | 0.979
TCAGCCGTGT | 0.992

Sequence | switch fluorescence ratio
TCAGCCTGGC | 1.08
TCAGCTCAGT | 1.01
TCAGCTTGCA | 1.11
TCAGGCGGGG | 0.999
TCAGGGAAAC | 1.98
TCAGGGAGCT | 1.04
TCAGGGCTCC | 1.04
TCAGGGTATG | 0.999
TCAGGTGCAT | 2.25
TCAGTAAGTC | 0.991
TCAGTAGGAC | 1.04
TCAGTCGAGT | 0.989
TCAGTCGGGA | 1.01
TCAGTGCCT | 1.04
TCAGTTGAT | 1.01
TCAGTTGGAG | 0.972
TCATAAAGTC | 0.995
TCATAACGGA | 0.992
TCATAAGAGG | 0.984
TCATAAGGTC | 1.05
TCATAATAGA | 0.977
TCATACACGA | 1.23
TCATAGGCGG | 0.959
TCATAGGCTG | 0.987
TCATAGTTC | 0.999
TCATAGTTG | 1.02

Sequence | switch fluorescence ratio
TCATATCGCC | 1
TCATATGAGG | 0.999
TCATCAATCT | 1.03
TCATCAGTCG | 1.01
TCATCCCAAT | 1.93
TCATCCTAG | 1.07
TCATCCTGTT | 0.997
TCATCGCCGG | 1
TCATCGGGTA | 1
TCATCTGAC | 1.13
TCATCTGGTA | 1.07
TCATCTTGTG | 1.02
TCATGAATGC | 1.02
TCATGCAGGG | 1.02
TCATGGACAT | 1.01
TCATGTATTC | 0.992
TCATGTGAGC | 0.966
TCATTAACCG | 0.979
TCATTAAGAG | 1
TCATTATATG | 1.01
TCATTATGCG | 0.961
TCATTCACGA | 1.03
TCATTCGGGA | 0.99
TCATTGATCT | 1
TCATTGCCTG | 0.918
TCATTTCGAC | 1.86

Sequence | switch fluorescence ratio
TCATTTGAGC | 1.03
TCATTTGATC | 1.06
TCCAAAACG | 1
TCCAACAGGG | 1.03
TCCAACGGT | 1.09
TCCAAGAAGT | 0.97
TCCAAGCCGC | 1.49
TCCAAGGACG | 1.1
TCCAAGGAGT | 1.01
TCCAATAAAA | 0.995
TCCAATAATT | 0.966
TCCAATCACA | 1.04
TCCAATCACG | 1.04
TCCACAATCT | 1.96
TCCACACAGG | 2.65
TCCACCAGA | 1.21
TCCACCGGTT | 1.18
TCCACGAAGC | 1.13
TCCACGACTT | 0.988
TCCACTCGAC | 1.18
TCCACTTGGA | 1
TCCAGAATAA | 1.06
TCCAGCTATA | 1.64
TCCATATTGT | 0.981
TCCATCATCA | 0.987
TCCATTGCAT | 1.45

Sequence | switch fluorescence ratio
TCCCAAGGGC | 1.04
TCCCACACGG | 1.29
TCCCACAGTC | 1.19
TCCCATACGG | 1.1
TCCCATTAAT | 1.02
TCCCATTGCG | 0.99
TCCCCAAGTA | 1.07
TCCCCAGTCC | 1.2
TCCCCCCTAC | 2.29
TCCCCGTTTG | 1.13
TCCCGAGGCT | 1.25
TCCCGCCGGG | 1.6
TCCCGCGGGA | 1.03
TCCCGGTGAA | 1.1
TCCCGTAAGC | 2.92
TCCCGTATGA | 1.03
TCCCGTCATT | 1.06
TCCCGTTCGG | 1.01
TCCCGTTGCA | 1.04
TCCCTATAGT | 1.05
TCCCTTAAAC | 1.92
TCCCTTTAAA | 0.989
TCCGAACGAA | 1.19
TCCGACATTC | 2.79
TCCGACCCA | 2.41
TCCGAGCTCG | 0.999

Sequence | switch fluorescence ratio
TCCGATACGG | 1.01
TCCGATCCGG | 1.09
TCCGATCTGT | 1.11
TCCGATGACA | 1.14
TCCGATTTGA | 0.974
TCCGCGAGTG | 1.98
TCCGGACAGG | 1.13
TCCGGACCGC | 1
TCCGGATACG | 1.21
TCCGGATGAG | 1.03
TCCGGGATGC | 1.11
TCCGGGTAAG | 0.96
TCCGTACAGT | 1.09
TCCGTAGTTT | 2.36
TCCGTGATGT | 1.04
TCCGTGCACG | 0.961
TCCGTGCAGC | 2.93
TCCGTGGCCT | 1.04
TCCGTGGTGT | 1.27
TCCGTGTGTC | 1.06
TCCGTGTTT | 1.06
TCCGTTAGCC | 1.72
TCCGTTTGGC | 1.06
TCCTAAAAAT | 0.98
TCCTAAGCT | 1.09
TCCTACACA | 1.45

Sequence | switch fluorescence ratio
TCCTACATTC | 1.06
TCCTACCACT | 1.26
TCCTAGGTGC | 2.79
TCCTAGGTTA | 1.01
TCCTAGTATA | 1.03
TCCTAGTATG | 0.969
TCCTATGATG | 0.978
TCCTATTATA | 0.994
TCCTATTCA | 1.02
TCCTCCGTTT | 4.75
TCCTCGATAT | 1.79
TCCTCGGGAT | 1.61
TCCTCGTCAT | 2.54
TCCTCGTCCG | 1.2
TCCTGAGG | 0.995
TCCTGATAAC | 1.07
TCCTGCGAAC | 3.58
TCCTGGCGTG | 1.03
TCCTGGGTAC | 1.26
TCCTGGTCTA | 1.03
TCCTGTCC | 1.4
TCCTGTGGGC | 1.03
TCCTTAAGTA | 1.03
TCCTTATCGT | 0.97
TCCTTATTCT | 0.967
TCCTTCAA | 3.82

Sequence | switch fluorescence ratio
TCCTTCGGCC | 1.99
TCCTTTAGAC | 1.09
TCCTTTCTCA | 1.26
TCGAAAATTT | 1
TCGAAAGGTG | 1.21
TCGAAATGTT | 0.984
TCGAACAAAA | 1.03
TCGAACGACG | 1.23
TCGAAGAAAG | 0.957
TCGAAGCTGA | 2.28
TCGAAGGAGG | 0.998
TCGAATGGGA | 1.03
TCGACAGTCG | 1.01
TCGACCAAAA | 1.09
TCGACGACTT | 1.15
TCGACGCTAG | 1.1
TCGACGTAGC | 1.17
TCGAGCCTGG | 1.01
TCGAGCTCTT | 0.979
